Experimental data taken from the BET-seq Pho4 binding data (Le et al. 2018).
The list shows a part of the results. The energies were worked out here from pooled read counts, against the library average; single values are noisy.

These sequences were tested against T1, Pho4 (S. cerevisiae) (UniProt P07270) (assay: relative binding free energy (BET-seq); higher = weaker binding). Settings: reference: library average.
T1 sequence: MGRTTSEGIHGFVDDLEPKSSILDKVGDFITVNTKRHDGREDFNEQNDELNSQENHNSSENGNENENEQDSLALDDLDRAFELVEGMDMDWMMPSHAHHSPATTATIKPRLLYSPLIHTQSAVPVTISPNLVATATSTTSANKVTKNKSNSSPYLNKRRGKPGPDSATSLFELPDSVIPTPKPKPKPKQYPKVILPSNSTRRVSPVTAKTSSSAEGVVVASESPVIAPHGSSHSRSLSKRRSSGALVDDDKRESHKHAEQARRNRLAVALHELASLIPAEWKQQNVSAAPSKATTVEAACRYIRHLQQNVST

Relative binding free energy, 0.03 kcal/mol:
AAGGTCACGTGCTAGT
AATTACACGTGATAGG
TCTTCCACGTGGTTGG

Relative binding free energy, 0.21 kcal/mol:
TAGGTCACGTGTTGGA

Relative binding free energy, 0.26 kcal/mol:
AGTGACACGTGAATGG

Relative binding free energy, -0.01 kcal/mol:
CGTAGCACGTGGTTGA
TTTTGCACGTGGTTCA
CATGACACGTGGGGTT
GTTGACACGTGGTTTG
CTTATCACGTGGGTGG
TATAGCACGTGATGTG
AGTGTCACGTGGGGTC

Relative binding free energy, 0.24 kcal/mol:
TCATTCACGTGTTTGT
GTGATCACGTGGTCCG
GGCTTCACGTGCGTGT
ATGCTCACGTGGAAGG

Relative binding free energy, -0.14 kcal/mol:
CTTGACACGTGGTGTT

Relative binding free energy, 0.02 kcal/mol:
GTCGGCACGTGTGTAG
GATGGCACGTGTTAAT
AGGTACACGTGTTAAT
TGGCGCACGTGAGCGT
GTCGGCACGTGTAGGA

Relative binding free energy, 0.19 kcal/mol:
TGTTTCACGTGGGATC
TAGCACACGTGTGAGT
AATTTCACGTGTTTAC
TTGTTCACGTGGCTCT
TAGGACACGTGATGGC
TCGGTCACGTGTGTAG

Relative binding free energy, -0.27 kcal/mol:
TAACGCACGTGGGGGG

Relative binding free energy, 0.22 kcal/mol:
CTGGTCACGTGTGAAA
ATGGTCACGTGCGATG
TCGTTCACGTGTGTGA
TTTTCCACGTGAGTGA

Relative binding free energy, 0.32 kcal/mol:
GATGTCACGTGACTGG
GGTAGCACGTGAGATT
GATTTCACGTGAGTGA
TAATTCACGTGTCTTG

Relative binding free energy, -0.18 kcal/mol:
ATTAGCACGTGGTAGC
TAGGGCACGTGGAGAA

Relative binding free energy, 0.35 kcal/mol:
AAATTCACGTGGATGA
TAATTCACGTGTGATC

Relative binding free energy, 0.08 kcal/mol:
CGGCTCACGTGGGTTG
CGGATCACGTGGATGT
GAATACACGTGTTTGT
CTGTGCACGTGTCGGG
ATTGTCACGTGTAGTC
AATTACACGTGTCTGG
CATGACACGTGTGGGC

Relative binding free energy, -0.26 kcal/mol:
ACTGGCACGTGTGCGG
TTGGGCACGTGGGTCT

Relative binding free energy, 0 kcal/mol:
ATTGGCACGTGTTTTG
ATGGACACGTGGGATA
AGCGGCACGTGTGTTT
TTGGGCACGTGTCGGG
GAGGACACGTGGGCGC

Relative binding free energy, 0.01 kcal/mol:
TGTGTCACGTGTGACG
ATGTACACGTGGCCGG
CTTATCACGTGTTTTG
AGCGTCACGTGGTCGT

Relative binding free energy, 0.46 kcal/mol:
GGACTCACGTGAGAGT

Relative binding free energy, 0.6 kcal/mol:
TGATTCACGTGTTGAC

Relative binding free energy, -0.03 kcal/mol:
GGGTACACGTGGTCTG
TTATACACGTGTTGAT
CTAAGCACGTGGGAGT
GGTCGCACGTGGTGTG
GGTGACACGTGGTATG
GCTGGCACGTGTATTG

Relative binding free energy, -0.02 kcal/mol:
ATTGTCACGTGGAGAT
GTGGACACGTGGTAAT
ATATGCACGTGGTATT
GGGGCCACGTGGTAAA
GTGAGCACGTGTAGTG

Relative binding free energy, -0.25 kcal/mol:
AAAGGCACGTGGAGTA
CTGGCCACGTGGGTAG
AAGAGCACGTGGGGTG

Relative binding free energy, -0.09 kcal/mol:
TTTGCCACGTGGGGTT
TTACGCACGTGGTTTG
GGGGCCACGTGGGTTT
GGAGCCACGTGGTGGA
GGGAGCACGTGGGCTC
TCAAGCACGTGGTTGT
GAAGGCACGTGCTGTG
TGTAGCACGTGTTTGG

Relative binding free energy, 0.42 kcal/mol:
GGGATCACGTGATAAT
GGTTACACGTGATCAT

Relative binding free energy, 0.3 kcal/mol:
GGTTTCACGTGGCTAA
GCGGACACGTGAGTGT
TATGTCACGTGAATGG

Relative binding free energy, 0.15 kcal/mol:
AGTTACACGTGTGTTT
ATATGCACGTGTACGG

Relative binding free energy, -0.39 kcal/mol:
TGGAGCACGTGGGCTG

Relative binding free energy, -0.1 kcal/mol:
TTGGGCACGTGCAAGA
GTGCGCACGTGCTAGG

Relative binding free energy, -0.12 kcal/mol:
TTAAACACGTGGGGGG
TGTGCCACGTGTTCTT
TGCTGCACGTGGCGTG
TCAGGCACGTGGACGG

Relative binding free energy, -0.3 kcal/mol:
TGGCGCACGTGGGTGT
TGCCGCACGTGCGGGG

Relative binding free energy, -0.23 kcal/mol:
GGAAGCACGTGGTTGA
TGTGGCACGTGCTGCA

Relative binding free energy, 0.07 kcal/mol:
ATAGTCACGTGTAGTC
CAGGACACGTGTGGTA
GGGAACACGTGTCAGT

Relative binding free energy, -0.17 kcal/mol:
CAGGGCACGTGGGTTA
TTAGCCACGTGTGTAG
TGGGGCACGTGCGCAG

Relative binding free energy, 0.04 kcal/mol:
TATGTCACGTGCTTAT
GTTTCCACGTGGGGGG
GGCTGCACGTGGTAAT
TACGGCACGTGTATTT

Relative binding free energy, 0.1 kcal/mol:
GTGTACACGTGTTGAA
TAATACACGTGCGGTG
AGTTGCACGTGTAAGA
GGATTCACGTGGGCGT

Relative binding free energy, -0.19 kcal/mol:
CTCGGCACGTGCGGGT
CAGTGCACGTGCAGGG
CGGAGCACGTGGTGTA
GGTGACACGTGGTGTA

Relative binding free energy, 0.18 kcal/mol:
TTTTTCACGTGGGGCA
TTGTGCACGTGAGTAC
GTAAACACGTGACGGG
TTGGACACGTGAGGCT
TTGCTCACGTGGCGAT
ACTTTCACGTGTATGT
ATTATCACGTGTGGGT

Relative binding free energy, 0.33 kcal/mol:
TGTTTCACGTGTGGTG
GAGATCACGTGTTATG

Relative binding free energy, 0.27 kcal/mol:
ATTTTCACGTGGATTA
TGTTACACGTGAGGGT

Relative binding free energy, 0.05 kcal/mol:
AGTATCACGTGGCTAG
TGTAACACGTGTCGCG
TTTTCCACGTGTATTA
TGTTCCACGTGGCGGG
AGTTACACGTGTGTCT
GTTACCACGTGTGTAT
CGGTGCACGTGTGAGA
ATTGGCACGTGAGATG
AGTTGCACGTGTGCTA
ATCGACACGTGGTTGT
TATTACACGTGGTCGA

Relative binding free energy, 0.17 kcal/mol:
CTTATCACGTGTTGTC
TTTTGCACGTGTACAC

Relative binding free energy, 0.11 kcal/mol:
TGTTACACGTGTTGTC
TTCTTCACGTGTGTTG
TGTTACACGTGATAGT

Relative binding free energy, -0.24 kcal/mol:
CGAGGCACGTGTATTG

Relative binding free energy, 0.16 kcal/mol:
GTTTCCACGTGATTGT
ATGGTCACGTGAGCAT

Relative binding free energy, -0.22 kcal/mol:
ATGTGCACGTGCTAGT

Relative binding free energy, 0.14 kcal/mol:
ATTTACACGTGCGAGT
TGATACACGTGATGGA
TCGGTCACGTGATAGT

Relative binding free energy, -0.13 kcal/mol:
TAGGGCACGTGGGATA
ACTTGCACGTGTTAGT
ATGGGCACGTGTCGTT
TATACCACGTGTGTTG
ATGGGCACGTGGATGT

Relative binding free energy, -0.28 kcal/mol:
TGGGGCACGTGGTACG

Relative binding free energy, 0.37 kcal/mol:
GAGTTCACGTGTGTGG

Relative binding free energy, -0.07 kcal/mol:
GCGAGCACGTGGTTGA

Relative binding free energy, 0.12 kcal/mol:
GGAGGCACGTGGAAGC
GGTTCCACGTGTTGTA
TACAGCACGTGTGGCG
GTTAGCACGTGATCGG
ATCTTCACGTGTTAGT
TGCCGCACGTGATTGT

Relative binding free energy, -0.29 kcal/mol:
AAGGGCACGTGGGGTA

Relative binding free energy, -0.04 kcal/mol:
CTGAACACGTGTGTGT
TTTGGCACGTGTATTG
ATAGGCACGTGTGGGA
TCGTGCACGTGGGATT
TAGAGCACGTGGTGAA

Relative binding free energy, -0.05 kcal/mol:
ATTGACACGTGCTTGT
TAGCCCACGTGGTTGT
TTCAGCACGTGGTTGT
GTGTACACGTGTATAA

Relative binding free energy, 0.06 kcal/mol:
TATTCCACGTGGTGCT
GGCTACACGTGGGTGT
ATAATCACGTGGTCTA
CCAGTCACGTGTTGGT
TATGGCACGTGAGGTG

Relative binding free energy, 0.4 kcal/mol:
TGGCTCACGTGAAGGA

Relative binding free energy, 0.36 kcal/mol:
TTGTGCACGTGAGATG
AGTTTCACGTGTGACG
AAGAACACGTGAGGTT

Relative binding free energy, 0.28 kcal/mol:
TGTTACACGTGAGGGA
TGTTTCACGTGTCATG
TCGTTCACGTGGAAAG

Relative binding free energy, -0.11 kcal/mol:
GTGGGCACGTGGGCGT
AGAGGCACGTGGCGGG
GGCTGCACGTGGTATG
GAAAGCACGTGTGGTT
AACTGCACGTGGTGTG

Relative binding free energy, 0.44 kcal/mol:
GTGGTCACGTGAATAC
GCTATCACGTGAGTTT

Relative binding free energy, -0.4 kcal/mol:
CATGCCACGTGGGGGG

Relative binding free energy, -0.08 kcal/mol:
TAGGGCACGTGTAGTC
TTCGGCACGTGGAGCT
TGCGACACGTGGGAGT

Relative binding free energy, -0.16 kcal/mol:
ATAGCCACGTGGGTGG

Relative binding free energy, -0.06 kcal/mol:
GTGGGCACGTGTCGGT
GTGAACACGTGGGTGA
AAGTGCACGTGCGTAT
TTTTGCACGTGGGTTA

Relative binding free energy, 0.39 kcal/mol:
TTGTACACGTGAGTTA
TTTTACACGTGAACTG
AGAGTCACGTGAGGCT

Relative binding free energy, 0.41 kcal/mol:
CGTTTCACGTGTAAAG
TAATTCACGTGACTGT

Relative binding free energy, 0.13 kcal/mol:
TTATGCACGTGATTGT
GGTTGCACGTGTTGTT

Relative binding free energy, 0.09 kcal/mol:
CATGGCACGTGATGGA
GATTACACGTGTCGTT
TGCATCACGTGGGAAG
ATGATCACGTGTTAGA
TTGTACACGTGTAGTG
GAGATCACGTGGGGCG
CTTAGCACGTGTGAAT

Relative binding free energy, 0.2 kcal/mol:
TTTGTCACGTGACGTG
TGGGCCACGTGTAATA

Relative binding free energy, -0.15 kcal/mol:
TCAGTCACGTGGGTAA
CTAGGCACGTGATCGG

Relative binding free energy, -0.21 kcal/mol:
TGTACCACGTGTTGAT

Relative binding free energy, 0.31 kcal/mol:
GTATTCACGTGATGTT
AAGTTCACGTGGTAGA
TATTTCACGTGCGGTA
TTTCACACGTGAAAGT
AGAATCACGTGAGGTT
ATAGTCACGTGAATGG
